# Experimental data taken from PMC4336329 (PLoS ONE, 2015).
# In all, about 310,000 compounds went through this assay and about 14,000 (4.5%) showed an effect of 50% or more. Effects have a minus sign here. The list shows a part of the results.
# Target: human ether-à-go-go-related gene (hERG) potassium channel (human, UniProt Q12809)
# Assay: primary screen, population patch clamp on CHO cells stably expressing hERG
# 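Also: peak tail current of the secondary pulse compared with the same well before compound.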
# Chain of human ether-à-go-go-related gene (hERG) potassium channel (Q12809 whole entry, looked up): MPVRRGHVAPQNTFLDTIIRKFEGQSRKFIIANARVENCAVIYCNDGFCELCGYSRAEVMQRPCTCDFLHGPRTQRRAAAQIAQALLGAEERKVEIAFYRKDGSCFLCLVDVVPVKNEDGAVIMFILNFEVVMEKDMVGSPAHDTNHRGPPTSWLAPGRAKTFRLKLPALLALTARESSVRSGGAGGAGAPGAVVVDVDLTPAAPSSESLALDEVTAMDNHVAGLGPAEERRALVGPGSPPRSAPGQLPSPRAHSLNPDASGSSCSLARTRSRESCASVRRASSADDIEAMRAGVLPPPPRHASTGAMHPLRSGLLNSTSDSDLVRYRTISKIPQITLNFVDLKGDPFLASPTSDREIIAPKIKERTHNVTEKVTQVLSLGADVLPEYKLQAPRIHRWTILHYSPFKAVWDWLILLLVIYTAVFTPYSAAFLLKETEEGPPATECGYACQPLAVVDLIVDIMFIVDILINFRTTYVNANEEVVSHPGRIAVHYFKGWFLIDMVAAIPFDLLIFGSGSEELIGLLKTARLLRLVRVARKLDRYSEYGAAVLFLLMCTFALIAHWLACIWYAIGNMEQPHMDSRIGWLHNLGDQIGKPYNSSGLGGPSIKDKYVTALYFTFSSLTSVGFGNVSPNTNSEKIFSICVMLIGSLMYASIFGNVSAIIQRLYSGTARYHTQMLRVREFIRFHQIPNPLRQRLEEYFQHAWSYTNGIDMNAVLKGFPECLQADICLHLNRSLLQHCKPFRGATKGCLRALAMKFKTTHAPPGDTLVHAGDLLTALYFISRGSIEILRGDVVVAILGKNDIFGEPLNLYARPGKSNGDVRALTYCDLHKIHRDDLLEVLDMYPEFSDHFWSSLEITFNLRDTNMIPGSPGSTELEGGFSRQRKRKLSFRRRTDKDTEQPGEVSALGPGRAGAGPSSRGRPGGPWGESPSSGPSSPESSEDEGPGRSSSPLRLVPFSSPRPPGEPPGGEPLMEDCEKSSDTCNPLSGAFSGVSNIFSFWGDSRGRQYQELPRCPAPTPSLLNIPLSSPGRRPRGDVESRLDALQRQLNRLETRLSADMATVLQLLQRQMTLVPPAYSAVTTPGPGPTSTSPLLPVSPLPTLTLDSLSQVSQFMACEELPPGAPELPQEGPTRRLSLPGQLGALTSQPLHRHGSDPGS
row,SMILES,"hERG current change (%, negative = inhibition) at 10uM [%]"
1,O=C(O)C[C@H]1c2cc(C(F)(F)F)ccc2S(=O)(=O)N1C1CCN(Cc2ccccc2)CC1,3.74
2,O=[N+]([O-])c1ccccc1N=Nc1ccc(O)cc1,6.61
3,O=C(NCC(c1cccs1)N1CCOCC1)c1cc([N+](=O)[O-])ccc1Cl (centres unmarked),-20.5
4,CCOc1cccc(C(=O)NNC(=O)CCC(=O)O)c1,15.2
5,CCO[C@H]1OC(C(=O)O)=C[C@@H](C)[C@@H]1CCCO,12.6
6,Cc1cccn2cc(CSc3ccccc3N)nc12,-20.5
7,CCCCC(=O)NC(=S)Nc1ccccc1C(=O)Nc1ccccc1,-7.87
8,O=C(Cn1nnc2ccccc21)c1ccc(Br)cc1,-2.12
9,COc1cc(OC)c(OC)cc1CNC(C)C(O)c1ccccc1.Cl (centres unmarked),12.6
10,COc1cccc(C2C3=C(N=c4s/c(=C\c5ccc(OCC(=O)O)cc5)c(=O)n42)c2ccccc2CC3)c1 (centres unmarked),0.67
11,Cc1ccc(O)c(C(=O)c2cnn(-c3ccc(S(=O)(=O)N4CCOCC4)cc3[N+](=O)[O-])c2)c1,5.09
12,Cc1ccc(SCC(=O)NCC2COc3ccccc3O2)cc1 (centres unmarked),-26.9
13,CCN(CC)S(=O)(=O)c1cccc(-c2nnc(SCCCC(=O)c3ccc(F)cc3)o2)c1,-36.1
14,O=[N+]([O-])c1ccc(N2CCNCC2)cc1NCc1ccco1,-28.2
15,O=C(Nc1ccc(N2CCOCC2)cc1)c1ccc([N+](=O)[O-])o1,7.94
16,CN(CCC1CCOCC1)C(=O)CC1C(=O)NCCN1Cc1ccoc1 (centres unmarked),13.2
17,CCOc1ccc(NC(=O)CSc2nnc(Cc3cccn3C)n2-c2ccc(F)cc2)cc1,-23.5
18,Cc1ccc(SCCNC(=O)c2ccc(C)c([N+](=O)[O-])c2)cc1,-20.2
19,CCCCCCCCCCSc1n[nH]c(NC(C)=O)n1,5.05
20,Nc1cccc(-c2cn3cccnc3n2)c1,34.5
21,CCN1CCN(S(=O)(=O)c2ccc(OC)c(NC(=O)c3ccccc3)c2)CC1,-49
22,O=C(NNc1cccc(Cl)n1)Nc1cccc(C(F)(F)F)c1,5.71

row,SMILES,"hERG current change (%, negative = inhibition) at 10uM [%]"
1,CC(C)CNC(=S)NNC(=O)c1ccc2c(c1)OCO2,3.43
2,COc1ccc(NC(=O)N2CCCC2C(=O)Nc2ccc(C)cc2)cc1 (centres unmarked),-11.7
3,C=CCn1c(SCC(=O)Nc2ncc(Cc3cc(Cl)ccc3Cl)s2)nnc1-c1ccncc1,7.9
4,COC(=O)C1=C(C)NC(=O)NC1c1ccc([N+](=O)[O-])o1 (centres unmarked),21.2
5,O=C(NCCc1cccc(F)c1)/C(=C/c1cccnc1)NC(=O)c1ccccc1,-36.4
6,Cc1ccccc1/C=N/Nc1nc2ccccc2c(=O)n1O,14.8
7,O=C(CCCn1c(=O)[nH]c2ccsc2c1=O)N1CCCCC1,13.2
8,Cc1cc(C(=O)N2CCC(Cc3ccccc3)CC2)ccc1[N+](=O)[O-],-38.5
9,COc1cccc2sc(/N=C/N(C)C)nc12,16.4
10,COc1cccc(NC(=O)CSC(N)=O)c1,12.4
11,BrC(=C\c1ccccc1)/C=N/Nc1nc(N2CCOCC2)nc(N2CCOCC2)n1,-42
12,NNS(=O)(=O)c1ccc(Cc2ncc(C(F)(F)F)cc2Cl)s1,2.61
13,O=C(Nc1ccc(F)c(Cl)c1)c1cncs1,16.4
14,O=C(O)CCCCCCCCCCP(=O)(c1ccccc1)c1ccccc1,-7.05
15,CCOC(=O)C[N+]1(C)CCN(C(C)=O)CC1.[Br-],6.35
16,O=S(=O)(Nc1cc(S(=O)(=O)N2CCOCC2)ccc1O)c1ccc2c(c1)OCCCO2,9.89
17,O=S(=O)(/N=C(/Nc1ccccn1)c1ccccc1)c1ccc(F)cc1,-12.3
18,COc1ccc(-c2nc3ccccc3n2Cc2ccccc2)cc1,-30.7
19,COc1cccc(C(=O)OCCN2CCCCC2)c1.Cl,-14.7
20,O=C(O)C(F)(F)F.c1cn2c(NC3CCCCC3)c(-c3ccc(SC4CCCCC4)cc3)nc2cn1,9.49
21,CC1=C(C(=O)Nc2cc(C(=O)N3CCN(c4cccc(C)c4C)CC3)ccc2C)SCCO1,-34.5
22,CCC(=O)N(Cc1ccco1)c1nc(-c2cc(OC)ccc2OC)cs1,1.45

row,SMILES,"hERG current change (%, negative = inhibition) at 10uM [%]"
1,CC(C)(CC(=O)N1CCN(c2ccc(Cl)cc2)CC1)CC1=NS(=O)(=O)c2ccccc2N1,-61.1
2,CC1(C)C=Cc2c(ccc3c2OC[C@@H](c2ccc(O)cc2O)C3)O1,11
3,O=C(CCN1C(=O)c2ccccc2S1(=O)=O)Nc1nc2c(s1)CCCC2,-28
4,COc1cccc(NC(=O)c2c([N+](=O)[O-])cnn2C)c1,17.4
5,COC(=O)CC1C(=O)NCCN1C(=S)NC(=O)c1sc2ccccc2c1Cl (centres unmarked),0.408
6,COc1ccc(CCn2cnc3c([nH]c4ccccc43)c2=O)cc1,7.96
7,CC(C)(C)c1ccc(C(=O)NCC(=O)OCC(=O)Nc2ccccc2[N+](=O)[O-])cc1,-21
8,COc1ccc(CN2C(=NC(=O)C3CCCO3)SC3CS(=O)(=O)CC32)cc1 (centres unmarked),-15.8
9,Cc1ccc(C(=O)NCC(=O)OCC(=O)N(CC(C)C)c2c(N)n(Cc3ccccc3)c(=O)[nH]c2=O)cc1,4.38
10,Cc1c(CN2CCC(CO)(CC3CCCCO3)CC2)cnn1C (centres unmarked),29
11,Cc1ccc(CN2CCCC(CO)(Cc3ccccc3C)C2)s1 (centres unmarked),-37.7
12,Cc1c(NS(=O)(=O)c2ccc(C(=O)NCc3ccccc3)cc2)c(=O)n(-c2ccccc2)n1C,8.77
13,Cc1ccsc1-c1nc(CN(C)C(C2CC2)C2CC2)c(C)o1,-76
14,Cc1[nH]n(-c2cccc3ccccc23)c(=O)c1/C=N/c1sc2c(c1C#N)CCC2,7.54
15,COc1ccc(CCNC(=O)COC(=O)c2cc(OC)c(OC)cc2OC)cc1,2.31
16,O=C1N[C@@H](Cc2ccccc2)C(=O)N2[C@H]3Nc4ccccc4[C@@]3([C@]34C[C@H]5C(=O)N[C@@H](Cc6ccccc6)C(=O)N5[C@H]3Nc3ccccc34)C[C@@H]12,11.3
17,CCc1nc(SCC(=O)c2cc(C)ccc2C)n[nH]1,3.15
18,O=C(c1ccc2c3c(cccc13)CC2)C1CCCN(Cc2ccc(OCCO)cc2)C1 (centres unmarked),-70.4
19,Cc1oc(-c2ccccc2)cc1C(=O)Nc1ccc2ccccc2c1,11.9
20,COc1ccc(NC(=O)CSc2nnnn2C2CC2)cc1S(=O)(=O)N1CCOCC1,-7.49
21,Cl.Clc1ccc2sc(C3CCNCC3)nc2c1,9.77
22,O=C(O)c1ccccc1-c1ccccc1C(=O)Nc1ccc(F)cc1,4.38

row,SMILES,"hERG current change (%, negative = inhibition) at 10uM [%]"
1,Nc1ccc(Oc2ccc(F)cc2)nc1,-1.88
2,O=C(COc1ccc(Br)cc1Cl)NC(=S)N1CCc2ccccc21,21.7
3,Cc1c(CCC(=O)O)c(=O)oc2cc3occ(-c4ccc(Br)cc4)c3cc12,22.1
4,O=C(NCc1ccc(F)cc1)C1CCCN(C(=O)Nc2ccc(F)cc2)C1 (centres unmarked),-23.7
5,CCOC(=O)c1[nH]c(C)c(/C(O)=C2\C(=O)C(=O)N(CCN3CCOCC3)C2c2cccs2)c1C (centres unmarked),-3.77
6,CC(=O)N1CCOc2ccc(S(=O)(=O)N3CCC(C(=O)Nc4ccccc4F)CC3)cc21,5.31
7,COc1ccc(/C=N/NS(C)(=O)=O)c(OC)c1,-0.814
8,COCCn1nc2cc(C(=O)NCC34CC5CC(CC(C5)C3)C4)ccc2c1OC,-9.01
9,CCCSc1nc2c3c(sc2c(=O)[nH]1)CC(C)(CC)OC3 (centres unmarked),4.12
10,CN(C[C@H](Cc1ccccc1)N(C[C@H](Cc1ccccc1)N(CCC(C)(C)C)N=O)N=O)N=O.[Na+],13.9
11,CC(C)OCCCNC(=S)Nc1ccc(S(N)(=O)=O)cc1,21.3
12,CN(CC(=O)Nc1ccc(F)cc1)C(=O)Cc1ccsc1,-0.977
13,Cc1cc(Br)cnc1NC(=S)Nc1ccc(F)cc1F,3.75
14,CCOC(=O)N1CCN(CC(=O)N2CCC(C(N)=O)CC2)CC1,4.42
15,O=C(CN1CCCCCC1)Nc1ccc(S(=O)(=O)N2CCCCC2)cc1,-38.7
16,O=C(CN1CCN(c2ccccc2F)CC1)c1ccc(O)cc1O,14.2
17,O=C(Nc1ccc(Cl)c([N+](=O)[O-])c1)c1cnccn1,-10.4
18,CC(=O)O.COc1ccc(C2Nc3ccccc3C(=O)N2Cc2ccco2)cc1CN1C(=O)c2ccccc2C1=O (centres unmarked),-11.4
19,CCOc1cc(N2CCOCC2)c(OCC)cc1NC(=O)CSc1ccccc1C(=O)O,5.72
20,CC1(C)CC(=O)c2sc(NC(=O)c3ccc4ncsc4c3)nc2C1,3.42
